Sequences and labels used below:
B1: δ subunit R277A mutant (natural protein)
chain: not shown
B2: δ subunit W279Y mutant (natural protein)
chain: not shown
B3: δ subunit W279A/R283A double mutant (natural protein)
chain: not shown
B4: δ subunit R283A mutant (natural protein)
chain: not shown
B5: δ subunit W279A/R277A double mutant (natural protein)
chain: not shown
B6: δ subunit W279A mutant (natural protein)
chain: not shown

This is an account of results in paper PMC2425476 (Nucleic Acids Research, 2008).

One assay deals with T1, γ subunit of the E. coli clamp loader (γ complex) (Escherichia coli).
B1: the binding result is recorded as “binds”.
Same read-out and setting: under B2 stands “binds”; under B3, “binds”.
Still for that read-out and setting: for B4 the value was “binds”.
Same read-out and setting: under B5 stands “binds”.

Another assay has as its target T1, γ subunit of the E. coli clamp loader …. This is another data set of the same source.
As to B6, the binding result is listed as “binds”.
